Molecular target: Noro protease (Norovirus, UniProt Q83883)
Assay: Norovirus protease inhibition assay (Noro-Norwalk FRET protease assay)
Conditions: IC50 (μM), peptide substrate 10 μM, 90 minutes at 37° C., compounds 200 μM to 10.2 nM

Row | Compound | IC50 [µM]
1 | CC(C)(C)C(=O)N1CCC2(CC1)CC(CC(NC(=O)[C@H](CC1CCCCC1)NC(=O)OC1CCCC1Cc1cccc(Cl)c1)C(=O)C(=O)NC1CC1)C(=O)N2 (stereo partly drawn) [Compound C210, 2-(3-Chlorobenzyl) cyclopentyl ((2S)-3-cyclohexyl-1-((4-(cyclopropylamino)-3,4-dioxo-1-(2-oxo-8-pivaloyl-1,8-diazaspiro[4.5]decan-3-yl)butan-2-yl)amino)-1-oxopropan-2-yl) carbamate] | > 200
2 | CCNC(=O)C(=O)[C@H](C[C@@H]1CCNC1=O)NC(=O)[C@H](CC1CCCCC1)NC(=O)OC(c1ccccc1)C(C)(C)c1cccc(Cl)c1 (stereo partly drawn) [Compound C211, 2-(3-Chlorophenyl)-2-methyl-1-phenylpropyl ((S)-3-cyclohexyl-1-(((S)-4-(ethylamino)-3,4-dioxo-1-((S)-2-oxopyrrolidin-3-yl)butan-2-yl)amino)-1-oxopropan-2-yl) carbamate] | 57.8
3 | CC(C)(C)C(=O)N1CCC2(CC1)CC(CC(C=O)NC(=O)[C@H](CC1CCCCC1)NC(=O)OCc1cccc(Cl)c1)C(=O)N2 (stereo partly drawn) [Compound C212, 3-Chlorobenzyl ((2S)-3-cyclohexyl-1-oxo-1-((1-oxo-3-(2-oxo-8-pivaloyl-1,8-diazaspiro[4.5]decan-3-yl)propan-2-yl)amino)propan-2-yl)carbamate] | 5.3
4 | O=C(N[C@@H](CC1CCCCC1)C(=O)N[C@@H](C[C@@H]1CCNC1=O)C(=O)C(=O)NC1CC1)OC(c1cccc(Cl)c1)C1(c2cccc(Cl)c2)CC1 (stereo partly shown) [Compound C213] | 18.9
5 | COc1cccc2[nH]c(C(=O)N[C@@H](CC(C)C)C(=O)NC(C=O)CC3CC4(CCCCC4)NC3=O)cc12 (stereo partly drawn) [Compound C214, 4-Methoxy-N-((2S)-4-methyl-1-oxo-1-((1-oxo-3-(2-oxo-1-azaspiro[4.5]decan-3-yl)propan-2-yl)amino)pentan-2-yl)-1H-indole-2-carboxamide] | 4.6
6 | CC(C)C[C@H](NC(=O)OC1(Cc2ccccc2)CCC1)C(=O)N[C@@H](C[C@@H]1CCNC1=O)C(=O)CO [Compound C215, 1-Benzylcyclobutyl ((S)-1-(((S)-4-hydroxy-3-oxo-1-((S)-2-oxopyrrolidin-3-yl)butan-2-yl)amino)-4-methyl-1-oxopentan-2-yl) carbamate] | > 200
7 | CC(C)C(OC(=O)N[C@@H](CC1CCCCC1)C(=O)N[C@@H](C[C@@H]1CCNC1=O)C(=O)C(N)=O)c1ccccc1 (stereo partly drawn) [Compound C216, 2-Methyl-1-phenylpropyl ((S)-1-(((S)-4-amino-3,4-dioxo-1-((S)-2-oxopyrrolidin-3-yl)butan-2-yl)amino)-3-cyclohexyl-1-oxopropan-2-yl)carbamate] | > 200
8 | CC1(C)CC(CC(NC(=O)[C@H](CC2CCCCC2)NC(=O)OC(Cc2cccc(Cl)c2)c2ccccc2)C(=O)C(N)=O)C(=O)N1 (stereo partly drawn) [Compound C217, 2-(3-Chlorophenyl)-1-phenylethyl ((2S)-1-((4-amino-1-(5,5-dimethyl-2-oxopyrrolidin-3-yl)-3,4-dioxobutan-2-yl)amino)-3-cyclohexyl-1-oxopropan-2-yl) carbamate] | > 200
9 | CC(C)C[C@H](NC(=O)OC(c1ccccc1)C(C)(C)c1cccc(Cl)c1)C(=O)NC(CC1CC(C)(C)NC1=O)C(=O)C(N)=O (stereo partly drawn) [Compound C218, 2-(3-Chlorophenyl)-2-methyl-1-phenylpropyl ((2S)-1-((4-amino-1-(5,5-dimethyl-2-oxopyrrolidin-3-yl)-3,4-dioxobutan-2-yl)amino)-4-methyl-1-oxopentan-2-yl)carbamate] | > 200
10 | CCN(CC)C(=O)C(=O)[C@H](C[C@@H]1CCNC1=O)NC(=O)[C@H](CC1CCCCC1)NC(=O)OC(c1ccc2ccccc2c1)C(C)(C)c1cccc(Cl)c1 (stereo partly drawn) [Compound C219, 2-(3-Chlorophenyl)-2-methyl-1-(naphthalen-2-yl) propyl ((S)-3-cyclohexyl-1-(((S)-4-(diethylamino)-3,4-dioxo-1-((S)-2-oxopyrrolidin-3-yl)butan-2-yl)amino)-1-oxopropan-2-yl)carbamate] | > 200
11 | CC1(C)CC(CC(NC(=O)[C@H](CC2CCCCC2)NC(=O)OC(c2cccc(F)c2)C(C)(C)c2cccc(Cl)c2)C(=O)C(N)=O)C(=O)N1 (stereo partly drawn) [Compound C220, 2-(3-Chlorophenyl)-1-(3-fluorophenyl)-2-methylpropyl ((2S)-1-((4-amino-1-(5,5-dimethyl-2-oxopyrrolidin-3-yl)-3,4-dioxobutan-2-yl)amino)-3-cyclohexyl-1-oxopropan-2-yl)carbamate] | > 200
12 | O=C(N[C@@H](CC1CCCCC1)C(=O)N[C@@H](C[C@@H]1CCNC1=O)C(=O)NS(=O)(=O)C1CC1)OCc1cccc(Cl)c1 [Compound C221, 3-Chlorobenzyl ((S)-3-cyclohexyl-1-(((S)-1-(cyclopropanesulfonamido)-1-oxo-3-((S)-2-oxopyrrolidin-3-yl)propan-2-yl)amino)-1-oxopropan-2-yl) carbamate] | > 200
13 | CC1(C)CC(CC(C=O)NC(=O)[C@H](CC2CCCCC2)NC(=O)OC(c2cccc(F)c2)C(C)(C)c2cccc(Cl)c2)C(=O)N1 (stereo partly drawn) [Compound C222, 2-(3-Chlorophenyl)-1-(3-fluorophenyl)-2-methylpropyl ((2S)-3-cyclohexyl-1-((1-(5,5-dimethyl-2-oxopyrrolidin-3-yl)-3-oxopropan-2-yl)amino)-1-oxopropan-2-yl)carbamate] | 13.8
14 | O=CC(CC1CC2(CCCCC2)NC1=O)NC(=O)[C@H](CC1CCCCC1)NC(=O)OC1CCCC1Cc1cccc(Cl)c1 (stereo partly drawn) [Compound C223, 2-(3-Chlorobenzyl)cyclopentyl ((2S)-3-cyclohexyl-1-oxo-1-((1-oxo-3-(2-oxo-1-azaspiro[4.5]decan-3-yl)propan-2-yl)amino)propan-2-yl)carbamate] | 22.6
15 | O=C[C@H](C[C@@H]1CCNC1=O)NC(=O)[C@H](CC1CCCCC1)NC(=O)O[C@H]1CCC[C@H]1Cc1cccc(Cl)c1 [Compound C224, (1S,2S)-2-(3-Chlorobenzyl) cyclopentyl ((S)-3-cyclohexyl-1-oxo-1-(((S)-1-oxo-3-((S)-2-oxopyrrolidin-3-yl)propan-2-yl)amino)propan-2-yl) carbamate] | 7.8
16 | O=CC(CC1CC2(CCOCC2)NC1=O)NC(=O)[C@H](CC1CCCCC1)NC(=O)OC1CCCC1Cc1cccc(Cl)c1 (stereo partly drawn) [Compound C225, 2-(3-chlorobenzyl)cyclopentyl ((2S)-3-cyclohexyl-1-oxo-1-((1-oxo-3-(2-oxo-8-oxa-1-azaspiro[4.5]decan-3-yl)propan-2-yl)amino)propan-2-yl)carbamate] | 7
17 | CC(C)C[C@H](NC(=O)OC(c1ccc(Cl)cc1)C(C)(C)c1cccc(Cl)c1)C(=O)N[C@@H](C[C@@H]1CCNC1=O)C(=O)C(=O)NC1CC1 (stereo partly drawn) [Compound C226, 2-(3-chlorophenyl)-1-(4-chlorophenyl)-2-methylpropyl ((S)-1-(((S)-4-(cyclopropylamino)-3,4-dioxo-1-((S)-2-oxopyrrolidin-3-yl)butan-2-yl)amino)-4-methyl-1-oxopentan-2-yl)carbamate] | 169
18 | COc1cccc2[nH]c(C(=O)N[C@@H](CC(C)C)C(=O)NC(CC3CC4(CCCCC4)NC3=O)C(=O)CCl)cc12 (stereo partly drawn) [Compound C227, N-((2S)-1-((4-chloro-3-oxo-1-(2-oxo-1-azaspiro[4.5]decan-3-yl)butan-2-yl)amino)-4-methyl-1-oxopentan-2-yl)-4-methoxy-1H-indole-2-carboxamide] | > 200
19 | O=C(O)C(=O)C(CC1CC2(CCCCC2)NC1=O)NC(=O)[C@H](CC1CCCCC1)NC(=O)c1cc2ccccc2[nH]1 (stereo partly drawn) [Compound C228, 3-((S)-3-Cyclohexyl-2-(1H-indole-2-carboxamido)propanamido)-2-oxo-4-(2-oxo-1-azaspiro[4.5]decan-3-yl)butanoic acid] | 25.8
20 | O=CC(CC1CC2(CCC2)NC1=O)NC(=O)[C@H](CC1CCCCC1)NC(=O)OCc1cccc(Cl)c1 (stereo partly drawn) [Compound C229, 3-Chlorobenzyl ((2S)-3-cyclohexyl-1-oxo-1-((1-oxo-3-(6-oxo-5-azaspiro[3.4]octan-7-yl)propan-2-yl)amino)propan-2-yl)carbamate] | 4.6
21 | CC(C)C[C@H](NC(=O)OC(Cc1ccccc1)C(C)C)C(=O)N[C@H](C=O)C[C@@H]1CCNC1=O (stereo partly drawn) [Compound C230, 3-Methyl-1-phenylbutan-2-yl ((S)-4-methyl-1-oxo-1-(((S)-1-oxo-3-((S)-2-oxopyrrolidin-3-yl)propan-2-yl)amino)pentan-2-yl)carbamate] | 13.4
22 | CCOC(=O)/C=C/[C@H](C[C@@H]1CCNC1=O)NC(=O)[C@H](CC(C)C)NC(=O)OC(Cc1ccccc1)c1ccccc1 (stereo partly drawn) [Compound C232, Ethyl (4S, E)-4-((2S)-2-(((1,2-diphenylethoxy)carbonyl)amino)-4-methylpentanamido)-5-((S)-2-oxopyrrolidin-3-yl) pent-2-enoate] | > 200
23 | COc1cccc2[nH]c(C(=O)N[C@@H](CC(C)C)C(=O)NC(CC3CC4(CCCCC4)NC3=O)C(=O)CO)cc12 (stereo partly drawn) [Compound C233, N-((2S)-1-((4-hydroxy-3-oxo-1-(2-oxo-1-azaspiro[4.5]decan-3-yl)butan-2-yl)amino)-4-methyl-1-oxopentan-2-yl)-4-methoxy-1H-indole-2-carboxamide] | > 200
24 | COc1cccc2[nH]c(C(=O)N[C@@H](CC(C)C)C(=O)NC(CC3CC4(CCCCC4)NC3=O)C(=O)C(=O)NC3CC3)cc12 (stereo partly drawn) [Compound C234, N-((2S)-1-((4-(cyclopropylamino)-3,4-dioxo-1-(2-oxo-1-azaspiro[4.5]decan-3-yl)butan-2-yl)amino)-4-methyl-1-oxopentan-2-yl)-4-methoxy-1H-indole-2-carboxamide] | 124
25 | CC(C)(c1cccc(Cl)c1)C(OC(=O)N[C@@H](CC1CCCCC1)C(=O)N[C@@H](C[C@@H]1CCNC1=O)C(=O)C(=O)O)c1ccc2ccccc2c1 (stereo partly drawn) [Compound C235, (3S)-3-((2S)-2-(((2-(3-Chlorophenyl)-2-methyl-1-(naphthalen-2-yl)propoxy)carbonyl)amino)-3-cyclohexylpropanamido)-2-oxo-4-((S)-2-oxopyrrolidin-3-yl)butanoic acid] | 8.9

From patent US20230159453A1 (COCRYSTAL PHARMA, INC., priority 2020, published 2023)
